The list shows a part of the results.

The labels stand for the following.
T1: UNK ZnF1-3 (human, UniProt Q9C0B0 31-174)
T1 sequence: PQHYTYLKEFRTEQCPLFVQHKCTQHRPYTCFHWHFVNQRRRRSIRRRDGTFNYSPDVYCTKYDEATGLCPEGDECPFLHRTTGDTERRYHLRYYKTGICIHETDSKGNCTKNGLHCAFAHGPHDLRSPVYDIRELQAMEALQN

B1: chr7:54825262:54825263:-_ENSG00000132432_ENST00000352861|hu_hu|hu_hu_hu_mus_False|98_98 (ssRNA)
RNA: GGGAGUUCUACAGUCCGACGAUCCUGCCGGCUGGGCACAAACUGCAGCAUUACCUGAUCCAUGUUUGUUGGAUGGCGGAUUGAGAGCGUAGAGACACGUAGCUCAGGAGAGAACCGAGCCCAACGGAACCGGAAGCUGGCAACCAACAGAGGAUUGAGCAUCA
B2: chr12:32445735:32445736:+_ENSMUSG00000035933_ENSMUST00000036862|mus_mus|FALSE|FALSE (ssRNA)
RNA: GGGAGUUCUACAGUCCGACGAUCUCGAGCUCUUGCAAUAAAGAGUAGAUCAUUCUCUAUUACUUCUAUUCCAGAAAGAUCUAUUCCUUGAGAAAGAUAAUCAAGUUCAUUGAGACUCUGAGCAGCUUUUGUUAUCUCUCUACUCAACAGAGGAUUGAGCAUCA
B3: chr3:179287964:179287965:+_ENSG00000136518_ENST00000429709|hu_hu|hu_hu_hu_mus_True|38_108 (ssRNA)
RNA: GGGAGUUCUACAGUCCGACGAUCCUUUAGAGGUGAAAUGGCCUCCAUGUUCUCCCUGGGCACGCGGAGGGCAUUGGUGUCUAUGUAGUAGGUGGGCCCGCCUUGUUUGCCUUUGUCACCAUCAAUCUCCAUCAUUGUACUUCCCAACAGAGGAUUGAGCAUCA
B4: 67424326_67425412_2592_3pUTR_ENSMUSG00000037736_ENSMUST00000038188|mouse|control|control (ssRNA)
RNA: GGGAGUUCUACAGUCCGACGAUCAGGUGGAUCCUGAGCUGGCUGUGGGUUUGUACCACAGUGUGGGGCCCCAGCCUCUGCCUCCAGCUGCGGGUCCUGAUGGAUUCCUUUUGACACGGAGAUUUCAGGGUUAGCCGAGGGACUCAACAGAGGAUUGAGCAUCA
B5: chr1:115279457:115279458:-_ENSG00000009307_ENST00000339438|hu_hu|FALSE|FALSE (ssRNA)
RNA: GGGAGUUCUACAGUCCGACGAUCGUUUAUUUUAUCUCCAGUUUCCAGCUGAACGUUCCCUUCGACAUCUUCAGGGGUGUAAGUCAGAUAAAACACUUCUUGUCCAUUCAUUCGUUCUUCAGGGAGGAUUUCUUGUUUUAUCUUCAACAGAGGAUUGAGCAUCA
B6: 184256513_184260114_344_3pUTR_ENSMUSG00000047539_ENSMUST00000051431|mouse|control|control (ssRNA)
RNA: GGGAGUUCUACAGUCCGACGAUCUGACUCUCUCCUCGGUAGCUGUGCUUUAACUUGCUUCUGACACAGGUUAUGGAACCUCUCCACUUUCAGAAACCCCUGAUUCAACAUUCUCUGACAGACCAGGUCCAUUCUCUUACAAACCAACAGAGGAUUGAGCAUCA
B7: chr8:72619762:72619763:-_ENSMUSG00000002341_ENSMUST00000002412|mus_mus|motif|central (ssRNA)
RNA: GGGAGUUCUACAGUCCGACGAUCCAGGAGGAUUGAGACUUCAAGGACAUCUUUCUACAAUAGUGAGUUCGAGGCCAGCCGGGUUUGGGGGUUGGAGGUGUUGGAAUUGGGAGGGAGGAAGAAGAAAGGGGAAAAAAAAAGAAACAACAGAGGAUUGAGCAUCA
B8: chr9:95013113:95013114:-_ENSG00000196305_ENST00000443024|hu_hu|hu_hu_hu_mus_False|1_78 (ssRNA)
RNA: GGGAGUUCUACAGUCCGACGAUCCUCAGUCAGAAAGGGCGUGUAAGGGGCCAUCAGUCUGCAAAGAGAAAGCAGGACACUGAACAGUGUCUCCAGAGCCAUGACACAGUCUUCCACCCCACUCUCACCCUUUAACCUUCUGCGCAACAGAGGAUUGAGCAUCA
B9: chr7:127792870:127792871:+_ENSMUSG00000030884_ENSMUST00000033176|mus_mus|motif|central (ssRNA)
RNA: GGGAGUUCUACAGUCCGACGAUCUGUGAAGUGGUUCUGAACAAAGUAAUGUAAUUCCUCUGAUGUUAUCUUCCCCAUCCGGUAGUCAGGACAGUACAAAGGAUUAGCCAAGGCAUUCUUGUAGGCAACAUCAUGCAAGUUCUCCAACAGAGGAUUGAGCAUCA
B10: chr11:46405157:46405158:+_ENSG00000110492_ENST00000395566|hu_hu|motif|central (ssRNA)
RNA: GGGAGUUCUACAGUCCGACGAUCCACUUAGGGGUGGGGCUGGGGAGUGAGAGGGACAAGGCAGGGCAUGAUUGAUUAAAGCGGACGAGCAGACAGAAGGCACUGGUGGGUCACAUCUCGGGCCUGGGAGAGGGAGGGCGUGGGCAACAGAGGAUUGAGCAUCA
B11: chr6:31457689:31457690:+_ENSMUSG00000025609_ENSMUST00000142469|perfect_dup|motif|central (ssRNA)
RNA: GGGAGUUCUACAGUCCGACGAUCGAUGAGGUCUACCAGGUUGCCUUUAGGAGGAGUCAUGCUGUCAGGAAAGAAAUUUACGGAGGUGUCAAAGAGCUGAGUUCUUUGAGCAUAGGUGUGAUCCACAUCAGAAAAGCCCAGAGCCAACAGAGGAUUGAGCAUCA
B12: 47159233_47176799_437_3pUTR_ENSG00000149179_ENST00000278460|human|control|control (ssRNA)
RNA: GGGAGUUCUACAGUCCGACGAUCCUGGAUCUGGAAGGCAAAGAGGAAAUCUGAAAAAGACAUCAAGCAGUCCAUGGCAUCGUCCAUGAGCACAAUCCUGGCUGCUUUCUGAGUGAGCUCCAGCGGGAAAUCAGGACACAGUAACAACAGAGGAUUGAGCAUCA
B13: 134350459_134350579_3058_CDS_ENSG00000130723_ENST00000357304|human|control|control (ssRNA)
RNA: GGGAGUUCUACAGUCCGACGAUCUUCAAAUUUGGUGGCCUCGCGGCCAAAAGUGGCAUGGCCAGGGCCUUUGUCCUCCAAAGUGGUGGUGGAGGAGUUGGCCAGAGAGGCAUCGUUCUCUUCGUCCUCAUCCUUUUCUGCCGUCAACAGAGGAUUGAGCAUCA
B14: chr4:99338562:99338563:+_ENSG00000138698_ENST00000453712|hu_mus|FALSE|FALSE (ssRNA)
RNA: GGGAGUUCUACAGUCCGACGAUCCCCAGCCAGCUGCAGCUGGUGGUUAUUCGAUGGGAUCCAGGAGAGCACCCUUUGGAACACACUGCCUUUUCCUCCUUCAAAAAGUUUCUGCAUGGACUCAUCUCCAAGCAGUAAUAAAACCAACAGAGGAUUGAGCAUCA
B15: chr3:148802587:148802588:-_ENSG00000071794_ENST00000310053|hu_mus|hu_hu_hu_mus_False|48_48 (ssRNA)
RNA: GGGAGUUCUACAGUCCGACGAUCUCCAACAACUUGUCCUCUCAUAGUUCCAAAUAAAACCAAAUCUUGCUCUUCAUCACUCGUUAGAAAGUCAUCUGGAGGAAUAAUGUCUUGGAAUUCAAAAUGUGGCAAGAAAGUUGAGUACAACAGAGGAUUGAGCAUCA
B16: chr9:34402745:34402746:-_ENSG00000164970_ENST00000297620|hu_mus|FALSE|FALSE (ssRNA)
RNA: GGGAGUUCUACAGUCCGACGAUCAGGGACGACCAGCCUCGUCCGGGCCAUGACGUUGUUCUUCUUGGGUUGCUGGUUGACAGGGCUGCCCAUGCUGCCGUUCUUCAGGGAACCCUUCCGGGCCAGCUCCCGUUGCUUCUCCUCCAACAGAGGAUUGAGCAUCA
B17: chr11:21048517:21048518:+_ENSMUSG00000020134_ENSMUST00000093290|mus_mus|motif|central (ssRNA)
RNA: GGGAGUUCUACAGUCCGACGAUCAACCCAAUCACUUAGCUUAUAAACUUACAAUGCAGUCCUGGAGGACAGCUGCGGGUCGGAAGGUCCUUGGAAAAUAAGUCUGAUAUAGCCUUGUUCACCAGCCAACUGAUGUGCACAGAACAACAGAGGAUUGAGCAUCA
B18: chr7:151048522:151048523:+_ENSG00000013374_ENST00000566856|hu_mus|hu_hu_hu_mus_True|28_98 (ssRNA)
RNA: GGGAGUUCUACAGUCCGACGAUCCUGUUUCUUAUUUAUGACAAUUUUGAUGUAAUUUUCUUGAAAUCCGAAAGUUUCAGCUAUUUGACACCUCAGGUCUCUACCAGUGAUGUGCAAGCGGGUCUCCAACAAGCUUUUCUUAUCCAACAGAGGAUUGAGCAUCA
B19: chr4:107252891:107252892:+_ENSG00000164022_ENST00000394701|hu_hu|motif|central (ssRNA)
RNA: GGGAGUUCUACAGUCCGACGAUCAGGGUGUUUUCUAGCAGUUAUGAUGCAACCAAUUCGAAGAUCCAGACGGGAAACAUCGGUUGGCUUAGAGUCGGCACUUCCAGCUAUUGAUUGCUGUUUUUUCUCCUUCUUCUCUCCUUUCAACAGAGGAUUGAGCAUCA
B20: chr7:7679991:7679992:-_ENSG00000106399_ENST00000396682|hu_hu|hu_hu_hu_mus_False|78_88 (ssRNA)
RNA: GGGAGUUCUACAGUCCGACGAUCUGGGAUGAAUCUUUUCCAGCUUCCCUACGAAGCAGACAGGCUUGUCGAUAUACUGUGGUAACAUGCUGGCGUUGACGCGCGCUUUGGGGAGCUGCAUUAUGUCCUCCAUGAUUCUGCCGCCAACAGAGGAUUGAGCAUCA
B21: chr5:138721144:138721145:-_ENSMUSG00000029510_ENSMUST00000161827|mus_mus|motif|central (ssRNA)
RNA: GGGAGUUCUACAGUCCGACGAUCUAGAACCCCGUUCUCGGCCGCGGGACGUCUCGAAGAAAAGAAUAGGAGCGUGUCCCCGGAAACUGAACAACCCCAGCACCGUAGCAGGACCAGGAGGCAUCUGCGGAGACAAUGGGAGCCCAACAGAGGAUUGAGCAUCA
B22: chr11:69803913:69803914:+_ENSMUSG00000018559_ENSMUST00000108593|mus_hu|FALSE|FALSE (ssRNA)
RNA: GGGAGUUCUACAGUCCGACGAUCCCAAAAUCCCAGUAUCCCACCCACAGCCCAGCCCUUGGAGCAGGAGUGAAGAAUUAGAUCAGUUUUGUACAAGAGUUUUUUAAAAAAAAUCAAAUCACAACAAAGCUGACUUGGCUUCUCCAACAGAGGAUUGAGCAUCA

This assay deals with T1, UNK ZnF1-3. The experiment in a line: nsRBNS (natural sequence RNA bind-n-seq); RBNS binding buffer (assumed for nsRBNS): 25 mM Tris pH 7.5, 150 mM KCl, 3 mM MgCl2, 0.01% Triton X-100, 500 ug/ml BSA, 20 U/ml SUPERase-In, 4 C; UNK is unkempt and MSI1 is Musashi-1; names of the RNAs are library labels; protein concentration not given here; high values mean tight binding.
B1 came in with a binding signal of 1.6 enrichment R.

The molecule B2 gave a binding signal of 0.687 enrichment R.

Molecule B3 yielded a binding signal of 0.765 enrichment R.

Molecule B4 showed a binding signal of 0.682 enrichment R.

B5 had a binding signal of 0.494 enrichment R.

Molecule B6 returned a binding signal of 0.836 enrichment R.

Regarding B7, the binding signal came to 1.9 enrichment R.

With B8, the binding signal came out at 1.06 enrichment R.

Molecule B9 registered a binding signal of 1.14 enrichment R.

Regarding B10, the binding signal came to 2.65 enrichment R.

B11 came in with a binding signal of 1.63 enrichment R.

As to B12, the binding signal was 1.75 enrichment R.

B13: the binding signal came out at 0.689 enrichment R.

Take B14: the binding signal amounted to 1.76 enrichment R.

For B15, the binding signal is 1.3 enrichment R.

For the molecule B16, the binding signal stood at 0.556 enrichment R.

For B17, the binding signal amounted to 1.31 enrichment R.

B18: the binding signal came to 0.73 enrichment R.

Regarding B19, the binding signal amounted to 0.614 enrichment R.

Molecule B20 registered a binding signal of 0.667 enrichment R.

As for B21, the binding signal turned out to be 1.39 enrichment R.

Take B22: the binding signal is 1.13 enrichment R.

These data come from PMC12136788.
